Test results published in PMC4336329 (PLoS ONE, 2015).
Out of some 310,000 compounds screened, about 14,000 (4.5%) showed an effect of 50% or more. Effects have a minus sign here. This is one part of the list.

Target: human ether-à-go-go-related gene (hERG) potassium channel (human, UniProt Q12809)
Assay: primary screen, population patch clamp on CHO cells stably expressing hERG
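Further: peak tail current of the secondary pulse compared with the same well before compound.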

human ether-à-go-go-related gene (hERG) potassium channel, sequence (Q12809 whole entry, looked up): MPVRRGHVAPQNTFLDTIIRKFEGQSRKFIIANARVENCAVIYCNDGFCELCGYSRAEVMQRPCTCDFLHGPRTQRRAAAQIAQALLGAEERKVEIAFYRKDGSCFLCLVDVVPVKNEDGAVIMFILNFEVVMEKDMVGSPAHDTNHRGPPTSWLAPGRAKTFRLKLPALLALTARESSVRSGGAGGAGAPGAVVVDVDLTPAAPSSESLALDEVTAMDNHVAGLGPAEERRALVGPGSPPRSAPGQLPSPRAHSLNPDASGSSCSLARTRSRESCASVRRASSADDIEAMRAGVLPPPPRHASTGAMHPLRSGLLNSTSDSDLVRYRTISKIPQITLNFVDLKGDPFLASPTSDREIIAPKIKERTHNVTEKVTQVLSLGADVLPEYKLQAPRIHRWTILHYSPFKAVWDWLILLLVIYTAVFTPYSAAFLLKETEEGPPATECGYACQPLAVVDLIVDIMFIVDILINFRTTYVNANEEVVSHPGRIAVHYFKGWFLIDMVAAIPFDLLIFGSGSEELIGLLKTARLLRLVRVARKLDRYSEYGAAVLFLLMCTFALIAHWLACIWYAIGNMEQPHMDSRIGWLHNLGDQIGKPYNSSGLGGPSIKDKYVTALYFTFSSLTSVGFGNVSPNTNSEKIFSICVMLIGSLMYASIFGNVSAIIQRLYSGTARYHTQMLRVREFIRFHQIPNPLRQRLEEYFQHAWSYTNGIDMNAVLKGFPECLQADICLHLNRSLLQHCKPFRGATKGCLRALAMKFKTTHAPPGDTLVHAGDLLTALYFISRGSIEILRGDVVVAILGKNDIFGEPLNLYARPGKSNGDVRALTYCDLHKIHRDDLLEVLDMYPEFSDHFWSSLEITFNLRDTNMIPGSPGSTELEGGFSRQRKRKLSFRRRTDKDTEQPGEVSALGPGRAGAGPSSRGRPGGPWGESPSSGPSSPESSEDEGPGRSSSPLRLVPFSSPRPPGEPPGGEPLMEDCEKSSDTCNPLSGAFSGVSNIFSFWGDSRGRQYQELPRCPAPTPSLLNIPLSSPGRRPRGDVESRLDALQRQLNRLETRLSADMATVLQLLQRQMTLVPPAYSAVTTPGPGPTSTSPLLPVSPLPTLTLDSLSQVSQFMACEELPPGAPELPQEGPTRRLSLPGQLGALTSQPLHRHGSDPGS

Row | SMILES | hERG current change (%, negative = inhibition) at 10uM
1 | Cn1nc(C(C)(C)C)cc1NC(=O)Nc1cc(Cl)cc(Cl)c1 | 13.2%
2 | CC1CCN(c2nc3c(=O)[nH]c(N)nc3n2[C@@H]2O[C@H](CO)[C@@H](O)[C@H]2O)CC1 | 13.6%
3 | O=C(C1CCN(S(=O)(=O)c2ccccc2F)CC1)N1CCc2ccccc21 | -31.8%
4 | CCOc1cc(N2CCOCC2)c(OCC)cc1NC(=O)COC(=O)C1CCCN1S(=O)(=O)c1ccccc1F (stereo not shown) | -29%
5 | CCOC(=O)c1cnc2oc3ccccc3n2c1=O | 9.66%
6 | COc1ccc(-c2oc(=O)c3cc(OC)c(OC)cc3c2-c2cc(F)cc(OC)c2)cc1 | 28%
7 | COCCNC(C)C(=O)Nc1ccc(Br)cc1.Cl (stereo not shown) | 29.6%
8 | Clc1cccc(CN2CCc3c([nH]c4ccccc34)C2)c1 | -31.9%
9 | COc1cc(OC)c2c(-c3ccccc3)cc(=O)oc2c1C(CCN1CCCC(C)C1)c1ccc(N(C)C)cc1 (stereo not shown) | -30%
10 | Fc1ccc2[nH]c3c(NCc4ccccc4)ncnc3c2c1 | 10.5%
11 | CCN(CC)C(=O)Cn1cc(C(=O)C(=O)NCCc2c[nH]c3ccccc23)c2ccccc21 | 8.71%
12 | c1ccc(C2NCCn3cccc32)cc1 (stereo not shown) | 2.74%
13 | Cc1ccc(CNc2nc3ccccc3n3cnnc23)cc1 | -6.53%
14 | CCOC(=O)c1cc(CC)sc1/N=C/C1=C(O)CC(C)(C)CC1=O | -0.911%
15 | CC(C)(C)OC(=O)N/N=C/c1ccc(Br)cc1 | 0.944%
16 | CCc1ccc(N2CC(O)(c3cccs3)[N+]3=C2SCCC3)cc1.[Br-] (stereo not shown) | -70%
17 | Cn1c(CC(=O)Nc2ccccc2)nnc1SCC(=O)Nc1ccc(N2CCOCC2)cc1 | 25.5%
18 | Cc1ccc(C)c(NC(=O)C2CCCN(S(=O)(=O)c3cccnc3)C2)c1 (stereo not shown) | 15.9%
19 | NNc1ncnc2c1cnn2-c1ccccc1 | 2.59%
20 | COc1ccc(-c2cc(=O)oc3cc(OC(C)C(=O)O)ccc23)cc1 (stereo not shown) | 6.26%
21 | CN(CC(=O)Nc1ccc(N2CCOCC2)cc1)CC(=O)Nc1ccccc1[N+](=O)[O-] | -25.3%
22 | Cc1cc(C)cc(C(=O)NN2CCOCC2)c1 | -3.55%
23 | CCCCc1cc(=O)oc2cc(C)cc(OC(C)C(=O)NC(Cc3c[nH]c4ccc(O)cc34)C(=O)O)c12 (stereo not shown) | -0.205%
24 | COc1ccc(S(=O)(=O)N2CC=C(C(=O)Nc3ccc(NC(C)=O)cc3)CC2)cc1 | 65.1%
25 | CC#CCc1cc2ccccc2c(=O)o1 | 11.6%
26 | COc1ccc(-c2nc(SC(C)C(=O)c3c(N)n(C)c(=O)n(C)c3=O)n[nH]2)cc1 (stereo not shown) | 8.3%
27 | CCOc1cc(C(=O)Nc2nnc(C)s2)cc(OCC)c1OCC | -1.56%
28 | O=C(COC(=O)c1cc(C(F)(F)F)cc(C(F)(F)F)c1)NCc1ccc(Cl)cc1 | 7.61%

Row | SMILES | hERG current change (%, negative = inhibition) at 10uM
29 | Cc1c(Cl)cccc1NC(=S)N1CCN(Cc2ccccc2)CC1 | -3.12%
30 | O=C(NCC1CCCO1)C1CCC(N2C(=O)c3ccccc3C2=O)CC1 (stereo not shown) | 5.87%
31 | CCC(C)[C@H](NC(=O)Nc1ccc(S(N)(=O)=O)cc1)C(=O)OC (stereo partly shown) | 13.1%
32 | CCOC(=O)c1nn(-c2ccccc2C)c(=O)cc1OCC(=O)N1CCN(c2ccccc2)CC1 | -24.6%
33 | CC(OC(=O)c1ccncc1)C(=O)Nc1cccc(Cl)c1 (stereo not shown) | -23.2%
34 | CC1(C)Oc2ccc(C(=O)Nc3ccccc3F)cc2N(CC(=O)N2CCOCC2)C1=O | -4.59%
35 | Cn1cc(/C=C2\SC(=O)N(c3ccccc3)C2=O)c2ccccc21 | 1.48%
36 | COc1ccc2c(c1)-c1nc(N)sc1CC2 | -7.58%
37 | CC1(C)N=C(N)N=C(N)N1c1ccc(OCCCOc2ccccc2)c(Cl)c1.CCS(=O)(=O)O | -28.7%
38 | O=c1oc(-c2ccccc2)cc(Cl)c1Cl | 6.6%
39 | Nc1ccc(C(=O)OCc2ccncc2)cc1[N+](=O)[O-] | -28.7%
40 | CC(=O)Nc1nc2c(c3c1c(=O)oc1ccccc13)CCCCC2 | -7.1%
41 | CC(O)CCc1nc2ccc(C(=O)O)cc2[nH]1.Cl (stereo not shown) | 14.5%
42 | CC1=NN(c2ccccc2)C(=O)/C1=C/C=C/c1ccccc1 | 8.91%
43 | Cc1[nH]c(C)c(S(=O)(=O)N(Cc2ccccc2)C(C)(C)C)c1C(=O)N1CCCC1 | -1.14%
44 | N#CCCn1c(SCC(=O)c2c[nH]c3ccccc23)nc2ccccc21 | 2.09%
45 | CC(OC(=O)CNC(=O)C12CC3CC(CC(C3)C1)C2)C(=O)Nc1ncc(Cl)cc1Cl (stereo not shown) | -6.7%
46 | CCOc1ccc(-n2c(SCC(=O)Nc3cc(C)on3)nc3c(c2=O)SCC3)cc1 | -0.269%
47 | O=C(CSc1nnnn1-c1ccccc1)Nc1ncc(Cc2cccc(Cl)c2Cl)s1 | 21.6%
48 | O=[n+]1c2c(n([O-])c3c1CCC3)CCCC2 | 11.6%
49 | C=CCOC(=O)C1=C(C)NC(C)=C(C(=O)OCC=C)C1c1ccc(O)cc1 | -30%
50 | CCOC(=O)C(CC)Sc1nnc2c3cc(C)ccc3n(C)c2n1 (stereo not shown) | -4.52%
51 | CCOC(=O)c1sc(=NC(=O)c2cc(OC)c(OC)c(OC)c2)n(C)c1C | -6.86%
52 | O=C(NCc1ccc(F)cc1)C1CC(=O)N(Cc2ccco2)C1 (stereo not shown) | -17%
53 | O=C(CSc1nnc(COc2ccccc2)o1)N1CCCC1 | -2.25%
54 | O=C(NCc1cccs1)C1CCN(S(=O)(=O)c2ccc(Cl)cc2)CC1 | 4.41%
55 | Cc1cccc(N(C(=O)c2snc(C(N)=O)c2N)C(C(=O)NC2CCCC2)c2ccc(C)o2)c1 (stereo not shown) | 17.6%
